Assay results published in publication PMC4336329 (PLoS ONE, 2015).
Hit rate of the full screen: of about 310,000 compounds, about 2,200 (0.71%) showed an effect of 50% or more. Effects have a minus sign here. The list shows a part of the results.

molecular target: human ether-à-go-go-related gene (hERG) potassium channel (human, UniProt Q12809); assay: primary screen, population patch clamp on CHO cells stably expressing hERG
Sequence (Q12809 whole entry, looked up): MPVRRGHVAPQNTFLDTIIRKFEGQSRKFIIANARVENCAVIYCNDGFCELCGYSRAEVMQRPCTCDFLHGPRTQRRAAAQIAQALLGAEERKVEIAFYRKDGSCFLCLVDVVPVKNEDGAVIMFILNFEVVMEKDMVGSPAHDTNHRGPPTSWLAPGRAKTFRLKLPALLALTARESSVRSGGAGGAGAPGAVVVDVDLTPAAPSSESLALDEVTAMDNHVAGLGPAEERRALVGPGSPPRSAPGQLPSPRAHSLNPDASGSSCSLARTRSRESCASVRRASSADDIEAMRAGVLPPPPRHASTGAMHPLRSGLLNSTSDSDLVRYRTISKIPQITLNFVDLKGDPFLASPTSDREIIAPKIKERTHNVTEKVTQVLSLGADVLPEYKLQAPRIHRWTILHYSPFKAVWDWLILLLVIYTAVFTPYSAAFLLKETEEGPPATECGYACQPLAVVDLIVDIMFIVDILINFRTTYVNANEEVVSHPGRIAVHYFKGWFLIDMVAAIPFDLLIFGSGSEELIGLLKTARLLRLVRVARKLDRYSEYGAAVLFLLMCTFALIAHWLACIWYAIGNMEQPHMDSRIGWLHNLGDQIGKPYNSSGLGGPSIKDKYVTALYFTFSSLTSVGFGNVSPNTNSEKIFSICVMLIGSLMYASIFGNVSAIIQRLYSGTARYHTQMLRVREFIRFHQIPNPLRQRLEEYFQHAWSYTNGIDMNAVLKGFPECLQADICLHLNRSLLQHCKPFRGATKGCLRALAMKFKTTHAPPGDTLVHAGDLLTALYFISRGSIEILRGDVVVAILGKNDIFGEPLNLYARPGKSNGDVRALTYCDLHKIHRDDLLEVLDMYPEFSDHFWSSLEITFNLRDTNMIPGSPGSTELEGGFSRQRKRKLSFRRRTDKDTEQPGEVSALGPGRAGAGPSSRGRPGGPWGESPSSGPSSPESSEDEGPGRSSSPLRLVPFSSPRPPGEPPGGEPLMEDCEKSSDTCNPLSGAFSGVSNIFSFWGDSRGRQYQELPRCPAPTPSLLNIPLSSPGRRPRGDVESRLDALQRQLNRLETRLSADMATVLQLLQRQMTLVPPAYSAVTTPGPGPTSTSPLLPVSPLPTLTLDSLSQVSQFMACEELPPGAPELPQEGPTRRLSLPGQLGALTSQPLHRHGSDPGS

Row | Structure (SMILES) | hERG current change (%, negative = inhibition) at 1uM [%]
1 | N#CCCn1cc(CNCc2ccccc2)c(-c2cccc([N+](=O)[O-])c2)n1 | 1.32
2 | Cc1ccc2cc(C)c3nnc(SCC(=O)c4cccs4)n3c2c1C | -0.578
3 | C[n+]1ccccc1COc1ccc(C(C)(C)C)cc1.Cc1ccc(S(=O)(=O)[O-])cc1 | 8.83
4 | CNc1c(-n2cc(C(=O)OC)c(C(=O)OC)c2C(=O)OC)c(=O)n(C)c(=O)n1C | 11.5
5 | CCOC(=O)c1ccc(-c2cccc(C(F)(F)F)c2)nc1C | 12.7
6 | Cc1ccc(N2C(=O)N(CC(=O)Nc3cccc([N+](=O)[O-])c3C)C(=O)C2C)cc1 (centres unmarked) | -5.12
7 | CN(CCOc1ccccc1)CC(=O)Nc1cc([N+](=O)[O-])ccc1Cl | 14.5
8 | C=CCNCCCCOc1ccc(Br)cc1C.O=C(O)C(=O)O | -10.4
9 | CCOC(=O)N1CCN(C(=O)CCc2c(C)nc3c(c(C)nn3-c3ccc(C)c(C)c3)c2C)CC1 | -3.47
10 | O=C(NCC1CCCO1)c1ccccc1 (centres unmarked) | 12.2
11 | CC(=O)Nc1ccc(Br)c2ccccc12 | 9.64
12 | CCC1CCCCN1C(=O)CSc1nnc(-c2ccc3c(c2)OCCO3)o1 (centres unmarked) | -4.29
13 | CC/C(C)=N/Oc1nc(C)cc(C)n1 | 15.8
14 | O=c1cc(N2CCOCC2)c2ccccc2o1 | 1.41
15 | COc1ccc(NC(=O)CN(C)C(=O)/C=C/c2cn(-c3ccccc3)nc2-c2cccs2)cc1 | 3.2
16 | Cc1cc(C)c(NC(=O)CSc2nccn2C)c(C)c1 | 25.7
17 | NC(=NCCc1ccccc1)NS(=O)(=O)c1ccccc1F | 11.7
18 | Cc1ccc(-n2ncc3c2CCCC3NC(=O)c2ocnc2C)cc1C (centres unmarked) | 10.4
19 | CC(C)CC(OC(=O)CC1Sc2ccccc2NC1=O)C(=O)NC1CCCC1 (centres unmarked) | 9.73
20 | Cc1cccc(N2CCN(C(=O)COc3ccc4c(c3)CCC4)CC2)c1C | -2.76
21 | COCCCn1c(=O)/c(=C\c2ccccc2OC(F)F)s/c1=C(/C#N)C(=O)NC(C)C | 2.11
22 | COC(CNc1cc(=O)oc2ccccc12)OC | 10.5
23 | COc1cccc(-n2c(SCc3ccccn3)nc3c(c2=O)SCC3)c1 | -4.24

Row | Structure (SMILES) | hERG current change (%, negative = inhibition) at 1uM [%]
24 | COc1ccc(C2CC(c3cccs3)=NN2C(=O)CSc2nncn2C)cc1OC (centres unmarked) | 12.2
25 | Cc1c(C(=O)c2ccccc2)c2ccccc2n1C | 9.56
26 | CCS(=O)(=O)Nc1cccc(C2=NN(S(=O)(=O)CC)C(c3cccs3)C2)c1 (centres unmarked) | 14.9
27 | CC1=C(C(=O)Nc2cccnc2)C(c2cccnc2)n2ncnc2N1 (centres unmarked) | -0.626
28 | O=C(Nc1ccc(F)c(F)c1)c1ccco1 | 9
29 | Cc1cc(=O)oc(C)c1C(=O)NCCc1ccccc1 | 16
30 | CCC1Sc2ccc(S(=O)(=O)CCC(=O)Nc3cccc(Br)c3)cc2NC1=O (centres unmarked) | 15
31 | COc1ccc(OC(=O)c2ccncc2)cc1 | 4.76
32 | O=C(CCC(=O)NNc1nc2ccccc2c2nc(-c3ccccc3)nn12)NCCCN1CCCC1=O | 10.8
33 | O=S(=O)(/N=C(\c1ccccc1)N1CCOCC1)c1cccs1 | 14.3
34 | CCNC(=O)c1cc2c(=O)n3cccc(C)c3nc2n(CCc2ccccc2)c1=N | -90.7
35 | CCCc1cc(=O)[nH]c(NCCc2ccccc2)n1 | 16
36 | CCOC(=O)C1Nc2c(F)cc(C)cc2C2c3ccccc3CC12 (centres unmarked) | 7.94
37 | CCc1ccc(NC(=O)Cc2ccc(-n3cccc3)cc2)cc1 | 7.74
38 | COc1cc(CN2CCN(Cc3cccc(OC)c3OC)CC2)cc(OC)c1 | 2.43
39 | COCCCN1C(=O)c2ccc(C(=O)OCC(=O)N(C)c3ccccc3)cc2C1=O | 8.71
40 | CC(NC(=O)COC(=O)c1cn(-c2ccccc2)nc1-c1cccs1)c1ccccc1 (centres unmarked) | 4.15
41 | Clc1ccc2nc(COc3ccccc3)[nH]c2c1 | 14.4
42 | CCC1Oc2ccccc2N(CC(=O)Nc2ccccc2OC)C1=O (centres unmarked) | -1.77
43 | NC(=O)c1ccc(Oc2ccc(Cl)cc2)c([N+](=O)[O-])c1 | 13.1
44 | O=[N+]([O-])/C(C(=C(Cl)Cl)N1CCOCC1)=C1\NCCO1 | 13.8
45 | Cc1cc(S(=O)(=O)Nc2c(C)ccc3nsnc23)ccc1F | 0.447
46 | COC(=O)c1ccc(N2CCN(CC(=O)c3ccc(C)cc3)CC2)c([N+](=O)[O-])c1 | -16

Row | Structure (SMILES) | hERG current change (%, negative = inhibition) at 1uM [%]
47 | C=CCn1cnc2scc(-c3ccccc3)c2c1=O | 11.3
48 | CCC1S/C(=C(\C#N)C(=O)NCc2ccco2)N(c2ccc(Br)cc2)C1=O (centres unmarked) | 11.3
49 | C=Cn1c(C(=O)O)ccc1-c1ccc(OC)cc1 | 12.5
50 | Cc1c(NC(=O)COC(=O)c2cc(-c3cccc4ccccc34)nc3ccccc23)c(=O)n(-c2ccccc2)n1C | 14.5
51 | CCOc1ccc(C(=O)Nc2ccc(NC(=O)c3ccco3)c(Cl)c2)cc1Cl | 13.1
52 | CC(=O)N1CCN(S(=O)(=O)c2ccc3c(c2)CCC(=O)N3)CC1 | 5.44
53 | CCOC(=O)c1cccc(N2C(=O)C3C4C=CC(CC4)C3C2=O)c1 (centres unmarked) | 2.27
54 | CC(=O)NC(CC(=O)Nc1ccc(S(=O)(=O)N2CCCCC2)cc1)c1ccccc1 (centres unmarked) | 4.06
55 | Cl.Clc1ccc2[nH]c3c(c2c1)CCNC3 | 16.4
56 | CCOC(=O)C1=C(COC(=O)Cc2ccc(Br)cc2)NC(=O)NC1C (centres unmarked) | 12.9
57 | Cc1nn(C)c(Sc2ccccn2)c1[N+](=O)[O-] | 8.59
58 | O=C(Nc1nnc(SCc2ccc(F)cc2)s1)c1ccco1 | 13.6
59 | Cc1nc2c3ccccc3nc(NNC(=O)CCC(=O)N3CCN(c4ccc(F)cc4)CC3)n2n1 | -3.88
60 | COc1ccc(C2=NN(c3ccccc3)C(=O)/C2=C\c2ccc(O)c(OC)c2)cc1 | 12.5
61 | CC(C)(C)c1ccc(/C=C(\C#N)C(=O)NC2CC2)cc1 | 12.8
62 | C/C(=N/OCc1ccc(Br)cc1)c1ccccn1 | 6.84
63 | CN1CCC(N(C)C(=O)NC2CCCCC2)CC1 | 10.9
64 | O=C(CSc1nnc(NC(=O)C2CC2)s1)NCc1ccc(F)cc1 | 29.1
65 | COc1cccc(Cn2cc(-c3cccc(C(F)(F)F)c3)nn2)c1 | 13.8
66 | O=c1[nH]c(CNCc2cccnc2)nc2ccccc12 | 16.9
67 | CCCn1c(C)cc(C)c(C#N)c1=O | 14.8
68 | COCCN(C(=O)COC(=O)C1(c2ccccc2)CC1)c1c(N)n(CC(C)C)c(=O)[nH]c1=O | 4.18
69 | Cc1ccc(-c2noc(CCC(=O)Nc3ccccc3N3CCN(C)CC3)n2)cc1 | -1.05

Row | Structure (SMILES) | hERG current change (%, negative = inhibition) at 1uM [%]
70 | Cc1cc2c(ncn2C(C)C)c(NS(=O)(=O)c2ccc(F)cc2)c1C | 10
71 | COCCn1c(-c2ccccc2)cnc1SCC(=O)Nc1cccc2ccccc12 | -0.771
72 | Cc1cc(N2CCN(Cc3ccc4c(c3)OCO4)CC2)n2ncnc2n1 | 6.24
73 | Cc1ccc(C(=O)NN2C(=O)/C(=C/c3cccn3C)SC2=S)cc1 | 6.51
74 | N#CC1(C#N)C(c2ccccc2)OC23CCCCC2C1(C#N)C(=N)O3 (centres unmarked) | 0.982
75 | O=C([O-])/C=C1\CCCc2ccccc2C1O.[Na+] (centres unmarked) | 16.4
76 | O=C(CSc1nccc(-c2cccs2)n1)Nc1ccc(F)c(Cl)c1 | 7.91
77 | CCC(C)(C)c1nnc(NC(=O)C2CCN(C(=O)c3ccco3)CC2)s1 | 11.4
78 | Cc1nnc(SCC(=O)N2CC(=O)Nc3ccccc32)n1C | 17
79 | CCSCCOC(=O)C1=C(C)NC(=O)NC1c1ccccc1 (centres unmarked) | 5.88
80 | COC(=O)C1=C(c2ccc(C(C)=O)cc2)C[C@@H]2CC[C@H]1N2C(=O)NCc1ccco1 | -4.1
81 | COc1cccc(CN(C)CC(=O)Nc2c(C)cccc2C(C)C)c1 | 5.62
82 | O=C1CC(Cc2ccccc2)C(=O)N1c1ccc(Cl)cn1 (centres unmarked) | 3.14
83 | Cc1ccc(-n2c(N)c(S(=O)(=O)c3ccccc3)c3nc4ccccc4nc32)cc1 | -13.4
84 | COC(=O)c1sc(NC(=O)C2CCCCC2C(=O)O)c(C(=O)OC)c1C (centres unmarked) | 18.1
85 | CCO[C@H]1OC(C(=O)NCc2ccccc2)=C[C@@H](C2CCCCC2)[C@@H]1CCCO | 9.95
86 | COc1cccc(C(=O)N2CCCN(C)CC2)c1OC | 7.14
87 | Cc1ccc(OCCC(=O)OCC(=O)NC2CCCC2)cc1 | 6.49
88 | CSc1ccc(S(=O)(=O)NCC(=O)OCCOc2ccccc2)cc1[N+](=O)[O-] | 8.29
89 | Cc1ccccc1OCc1n(CC(=O)OC2CC(C)CCC2C(C)C)c2ccccc2[n+]1C.[Cl-] (centres unmarked) | -1.86
